Several values for one entry are separate records, joined by “and”; a condition that tells them apart may be missing. Identical values can stand only once. The whole screen tested about 270,000 compounds, of which about 620 (0.23%) were called active. This list was built around the results that the source calls inconclusive (neither active nor inactive); the mix of calls is not that of the screen. Calls follow the shape of the dose curve; as a rule, active = well fitted inhibition curve with a large enough effect in the polarisation, with a control signal flat (not every such curve was filed as active); inconclusive = small, poorly fitted or top-dose-only effect, or effect the other way, or a change in a side signal; inactive = no such curve, though single readings can be large or run the other way; the % refers to the polarisation. Potencies beside an inconclusive call are fits to weak or partial responses and may not hold up. “Side channel” marks fits to a control or component signal instead of the main read-out.
Molecular target: Menin (Homo sapiens) (UniProt O00255)
Experiment: qHTS Assay for Inhibitors Targeting the Menin-MLL Interaction in MLL Related Leukemias: Competition With Texas Red Labeled MLL-derived Mutant Peptide; as to FP activity change, negative = inhibition: % of control where 0% means no effect
Conditions: fluorescence polarization; FP activity change, negative = inhibition: at 61.6 µM (top of the series)
Potency is read from the fitted curve at half-maximal effect; tags tell the direction and shape of the fitted curve or compound fluorescence and quenching.

Chain of UniProt O00255 (O00255 whole entry, looked up): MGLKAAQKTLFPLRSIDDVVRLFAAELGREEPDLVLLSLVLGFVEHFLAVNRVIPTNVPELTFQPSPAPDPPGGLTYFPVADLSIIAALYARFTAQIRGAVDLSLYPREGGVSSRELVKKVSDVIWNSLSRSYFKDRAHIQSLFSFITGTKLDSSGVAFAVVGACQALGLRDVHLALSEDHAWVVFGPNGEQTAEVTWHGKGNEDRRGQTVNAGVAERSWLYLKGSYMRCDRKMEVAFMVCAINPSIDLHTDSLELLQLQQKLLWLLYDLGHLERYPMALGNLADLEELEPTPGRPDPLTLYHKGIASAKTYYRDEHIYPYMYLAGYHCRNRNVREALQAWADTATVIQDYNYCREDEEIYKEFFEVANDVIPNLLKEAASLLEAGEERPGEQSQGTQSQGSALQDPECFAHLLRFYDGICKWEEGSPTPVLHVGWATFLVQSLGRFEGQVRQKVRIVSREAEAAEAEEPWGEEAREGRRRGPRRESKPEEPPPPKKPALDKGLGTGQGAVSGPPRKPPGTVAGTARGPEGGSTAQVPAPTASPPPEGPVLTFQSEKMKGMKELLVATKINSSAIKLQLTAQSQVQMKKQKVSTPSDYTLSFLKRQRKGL

| SMILES | Potency | FP activity change, negative = inhibition |
| --- | --- | --- |
| COc1c(Cl)cc(C(=O)Nc2ccccc2C(=O)O)cc1Cl | inconclusive: 11.2 µM [quencher, side channel, partial curve] |  |
| CCc1ccc(C2NC(=S)NC3=C2C(=O)N(c2ccccc2OC)C(c2ccc(CC)cc2)N3)cc1 (stereo unspecified) | inconclusive: 10 µM [fluorescent, side channel, partial curve] |  |
| CC(=O)Nc1ccc(Nc2nc(-c3cc4ccccc4oc3=O)cs2)cc1 | inconclusive: 12.6 µM [quencher, partial curve] |  |
| C=CCn1c(SCC(=O)NC2CCS(=O)(=O)C2)nnc1-c1cc2c(s1)CCC(CC)C2 (stereo unspecified) | inconclusive: 14.1 µM [fluorescent, side channel, partial curve] |  |
| Cc1ccc(N2C(=O)C3Sc4[nH]c(=O)sc4C(c4ccccc4)C3C2=O)cc1 (stereo unspecified) |  | inactive: 39.5% |
| C/C(=N/Nc1cc(-c2ccccc2)nc(-c2ccccc2)n1)c1ccc(O)cc1 | inconclusive: 2.82 µM [quencher, side channel, full curve] |  |
| COc1cc2c(c(OC)c1OC)-c1c(cc3c(c1OC)OCO3)CC(C)C(C)C2 (stereo unspecified) | inconclusive: 5.01 µM [inhibitor, partial curve] |  |
| OC[C@@H]1[C@@H](c2ccc(F)cc2)C(c2ccccc2)=NN1c1ccccc1 | inconclusive: 25.1 µM [quencher, side channel, partial curve] |  |
| N=C1SCC(=O)N1c1ncc(Cc2ccccc2Cl)s1 | inconclusive: 31.6 µM [quencher, side channel, partial curve] |  |
| COc1ccc(-n2c(C)c(C)c3c(NCCN(C)C)ncnc32)cc1 | inconclusive: 20 µM [inhibitor, partial curve] |  |
| O=C(/C=C/c1cn(-c2ccccc2)nc1-c1ccccc1)Nc1ccc(C(=O)O)cc1 | inconclusive: 2.82 µM [quencher, side channel, full curve] |  |
| COc1ccc(-c2nnc(NC(=O)c3ccc4c(c3)OCCO4)o2)cc1 | inconclusive: 11.2 µM [quencher, side channel, partial curve] |  |
| CCOC(=O)Cc1cc(=O)n2[nH]c(-c3ccc(Cl)cc3)cc2n1 | inconclusive: 25.1 µM [quencher, side channel, single point] |  |
| O=C(CCn1c(=S)oc2ccccc21)Nc1cccc(F)c1 | inconclusive: 35.5 µM [fluorescent, side channel, single point] |  |
| COc1cc(/C=C2/C(=O)NN(c3cccc(C)c3)C2=O)cc([N+](=O)[O-])c1O | inconclusive: 31.6 µM [quencher, side channel, single point] |  |
| CCc1ccccc1NC(=O)c1cccc(N2C(=O)C3C4CCC(C4)C3C2=O)c1 (stereo unspecified) | inconclusive: 7.94 µM [inhibitor, full curve, poor fit] |  |
| CCOC(=O)C(=O)N=Nc1c(O)[nH]c2ccccc12 |  | inactive: 15.4% |
| CCOc1ccc(NS(=O)(=O)c2ccc(NS(=O)(=O)c3ccccc3)cc2)cc1 | inconclusive: 31.6 µM [quencher, side channel, single point] |  |
| Cc1ccc2nc(NC(=O)c3ccc(OCC4CCCO4)cc3)sc2c1 (stereo unspecified) | inconclusive: 12.6 µM [quencher, side channel, partial curve] |  |

| SMILES | Potency | FP activity change, negative = inhibition |
| --- | --- | --- |
| COc1ccc(/C=C/C(=O)c2cccs2)c(OC)c1 | inconclusive: 39.8 µM [fluorescent, side channel, partial curve] |  |
| CCOC(=O)c1ccc(N2C(=O)Cc3ccccc3C2=O)cc1 | inconclusive: 12.6 µM [quencher, side channel, partial curve] |  |
| CCOc1ccc2nc(NC(=O)c3ccoc3C)sc2c1 | inconclusive: 11.2 µM [quencher, side channel, partial curve] |  |
| O=C(CN1CCN(Cc2ccccc2F)CC1)Nc1ccccc1Cl | inconclusive: 11.2 µM [inhibitor, partial curve] |  |
| CCC(C(=O)N1CCc2ccccc2C1)n1nc(C)n2c(cc3occc32)c1=O (stereo unspecified) | inconclusive: 22.4 µM [inhibitor, single point] |  |
| CC(C)(C)NS(=O)(=O)c1ccc2nc(NC(=O)Cc3cccs3)sc2c1 | inconclusive: 31.6 µM [quencher, side channel, single point] |  |
| O=C(Nc1ccc(NC(=S)NC(=O)c2ccccc2F)cc1)c1cccs1 | inconclusive: 11.2 µM [quencher, side channel, partial curve] |  |
| N#Cc1ccc(-c2ccccc2)nc1SCC(=O)c1cc2ccccc2oc1=O | inconclusive: 14.1 µM [quencher, side channel, partial curve] |  |
| CN(CCC#N)C(=O)COC(=O)c1c2c(nc3ccccc13)/C(=C/c1ccco1)CC2 | inconclusive: 20 µM [quencher, side channel, partial curve] |  |
| C[C@](N)(Cc1ccc(O)c(O)c1)C(=O)O | inconclusive: 25.1 µM [quencher, side channel, single point] |  |
| COc1ccc(NC(=O)C(C)N2c3cccc4cccc(c34)S2(=O)=O)cc1 (stereo unspecified) | inconclusive: 39.8 µM [quencher, side channel, single point] |  |
| CCCOc1ccc(/C(O)=C2/C(=O)C(=O)N(c3cc(C)on3)C2c2ccc(C(=O)OC)cc2)cc1 (stereo unspecified) | inconclusive: 14.1 µM [quencher, side channel, partial curve] |  |
| Cc1ccc(C)c(NC(=O)c2nnn(Cc3ccccc3C)c2N)c1 | inconclusive: 39.8 µM [quencher, side channel, single point] |  |
| Fc1ccccc1Nc1nc2c(s1)CCc1ccccc1-2 | inconclusive: 10 µM [quencher, side channel, partial curve] |  |
| C#CCn1c2ccccc2c2nc3ccccc3nc21 |  | inactive: 42.9% |
| O=C(Nc1ccccc1C(=O)O)c1ccc(NC(=O)C2CCCCC2)cc1 | inconclusive: 17.8 µM [quencher, side channel, partial curve] |  |
| COc1cccc(NC(=O)Nc2nc(-c3ccc(OC)c(OC)c3)cs2)c1 | inconclusive: 7.08 µM [quencher, side channel, partial curve] |  |
| C=COC(=O)CSc1nc(-c2cccs2)ccc1C#N | inconclusive: 8.91 µM [quencher, side channel, partial curve] |  |
| COc1ccc(C(=O)N2CCN(S(=O)(=O)c3cc(Cl)ccc3OC)CC2)cc1 | inconclusive: 1.26 µM [inhibitor, full curve, poor fit] |  |

| SMILES | Potency | FP activity change, negative = inhibition |
| --- | --- | --- |
| COc1ccc(-c2csc(NC(=O)c3ccc(S(=O)(=O)N4CCc5ccccc5C4)cc3)n2)c(OC)c1 | inconclusive: 7.08 µM [inhibitor, full curve] |  |
| [O-]/C(=C(\C(=S)Nc1cccc2ccccc12)[n+]1ccccc1)c1ccc(Cl)s1 | inconclusive: 12.6 µM [quencher, side channel, partial curve] |  |
| O=C(CCCSc1ccccc1)Nc1nc(-c2ccccn2)cs1 | inconclusive: 14.1 µM [quencher, side channel, partial curve] |  |
| CCOC(=O)C(C(=O)OCC)c1cc(Br)c2noc3c2c1C(=O)c1ccccc1-3 | inconclusive: 3.55 µM [inhibitor, full curve] |  |
| Cn1c(=O)c(C(=O)COC(=O)c2cc(-c3ccccc3)nc3ccccc23)c(N)n(Cc2ccccc2)c1=O | inconclusive: 4.47 µM [quencher, side channel, full curve, poor fit] and inconclusive: 7.94 µM [quencher, side channel, partial curve] |  |
| COc1ccccc1NC(c1cccnc1)c1ccc2cccnc2c1O (stereo unspecified) |  | inactive: -5.7% |
| COc1ccc(OC)c(/C=C/C(=O)Nc2cccc(S(=O)(=O)N3CCCC3)c2)c1 | inconclusive: 10 µM [quencher, side channel, partial curve] |  |
| COCCNC(=S)NN=C1CCCCC1 |  | inactive: 5.26% |
| CCOc1ccc(-c2n[nH]c(C)c2-c2ccccc2OC)c(O)c1 | inconclusive: 31.6 µM [quencher, side channel, partial curve] |  |
| Cc1ccc(NC(=O)CSc2nc(N)c(-c3ccccc3)c(=O)[nH]2)cc1Cl | inconclusive: 22.4 µM [fluorescent, side channel, single point] |  |
| Cc1ccc2nc(NC(=S)NC(=O)c3ccco3)sc2c1 | inconclusive: 7.08 µM [quencher, side channel, partial curve] |  |
| COc1ccc(-c2nn(-c3ccccc3)cc2/C=N/Nc2ccccn2)cc1 | inconclusive: 3.98 µM [quencher, side channel, partial curve] |  |
| COc1ccc(NC(=O)Cn2c(=O)n(-c3ccc(CC(=O)NCc4ccco4)cc3)c(=O)c3ccccc32)cc1 | inconclusive: 39.8 µM [fluorescent, side channel, single point] |  |
| COc1ccc(C(=O)OCC(=O)NCCCc2ccccc2)c(OC)c1 | inconclusive: 39.8 µM [inhibitor, single point] |  |
| Cc1cccn2c(=O)c3cc(C(=O)NC4CCCC4)c(=N)n(C4CCCC4)c3nc12 |  | inactive: -24.7% |
| COc1ccccc1OCCn1cc(/C=N/NC(N)=S)c2ccccc21 | inconclusive: 39.8 µM [inhibitor, single point] |  |
| O=C(Cc1ccc(Cl)cc1)N/N=C/c1ccccc1 | inconclusive: 28.2 µM [inhibitor, single point] |  |
| COC(=O)C(CCSC)NS(=O)(=O)c1ccccc1Br (stereo unspecified) |  | inactive: 5.89% |
